Test results reported in PubChem BioAssay AID493005 (National Center for Advancing Translational Sciences (NCATS), 2010).
The campaign covered roughly 340,000 compounds. Fewer than 10 were called active. Inconclusive means that the source gave no clear call. Such entries were picked first, then a sample of the others. Calls follow the shape of the dose curve; as a rule, active = well fitted inhibition curve with a large enough effect in the main read-out, with a control signal flat (not every such curve was filed as active); inconclusive = small, poorly fitted or top-dose-only effect, or effect the other way, or a change in a side signal; inactive = no such curve, though single readings can be large or run the other way. Where the call is inconclusive, the potency comes from a doubtful curve fit. A note “side channel” means that the fit belongs to a control or component signal, not to the main read-out.

biological target: Tumor susceptibility gene 101 protein (Homo sapiens) (UniProt Q99816); assay: qHTS Assay for Iinhibitors of HIV-1 Budding by Blocking the Interaction of PTAP/TSG101; conditions: Fluorescence polarization, FITC-PTAP peptide / Tsg101 binding; series mostly up to 115 µM
Chain of UniProt Q99816 (Q99816 whole entry, looked up, the tested form may be a part): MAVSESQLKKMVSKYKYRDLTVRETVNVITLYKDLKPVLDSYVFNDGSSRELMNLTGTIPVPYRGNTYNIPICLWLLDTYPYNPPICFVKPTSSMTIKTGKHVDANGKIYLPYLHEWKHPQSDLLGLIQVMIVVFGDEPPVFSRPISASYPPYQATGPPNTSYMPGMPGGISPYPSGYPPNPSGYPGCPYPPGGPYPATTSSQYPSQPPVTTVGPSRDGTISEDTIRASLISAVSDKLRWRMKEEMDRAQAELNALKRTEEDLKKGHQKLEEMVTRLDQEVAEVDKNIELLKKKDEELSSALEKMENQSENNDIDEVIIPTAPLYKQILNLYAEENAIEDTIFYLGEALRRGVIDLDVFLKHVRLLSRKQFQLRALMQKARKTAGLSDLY
In short: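 Steps: Tsg101 binding domain dispensed (10 uM final), compounds pinned in DMSO, FITC-labeled PTAP-motif peptide added (50 nM final); after 20 min binding at room temperature, polarization measured.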
Potency is read from the fitted curve at half-maximal effect; tags tell the direction and shape of the fitted curve or compound fluorescence and quenching.

| SMILES | Potency |
| --- | --- |
| CCN(CC)c1ccc2cc(S(=O)(=O)c3ccc(C)cc3)c(=O)oc2c1 | inconclusive: 79.4 µM [fluorescent, partial curve, poor fit] |
| Nc1c(C(=O)Nc2ccccc2F)sc2nc(Cc3ccccc3)cc(C(F)(F)F)c12 | inconclusive: 50.1 µM [fluorescent, side channel, partial curve, poor fit] |
| COc1ccccc1N1C(=O)C2C(C(=O)c3ccccc3)=NN(c3ccc(Br)cc3)C2C1=O (centres undefined) | inconclusive: 50.1 µM [fluorescent, side channel, partial curve, poor fit] |
| Oc1[nH]c2ccccc2c1N=Nc1cccc(Cl)c1 | inconclusive: 56.2 µM [fluorescent, side channel, partial curve, poor fit] |
| Cc1cc(-c2cccs2)c2c(N)c(C(=O)c3ccc4c(c3)OCO4)sc2n1 | inconclusive: 79.4 µM [fluorescent, side channel, partial curve] |
| CC1CCN(c2ccc3nnc(CCC(=O)N4CCCCC4)n3n2)CC1 | inconclusive: 79.4 µM [fluorescent, side channel, single point] |
| C=CCNc1ncnc2c1cnn2-c1ccc(C)cc1C | inactive |
| c1ccc(CN2CCN(Cc3nnc(-c4ccccc4)o3)CC2)cc1 | inactive |
| COC(=O)C[C@H]1c2cc(F)ccc2S(=O)(=O)N1c1ccccc1 | inconclusive: 79.4 µM [falling, partial curve, poor fit] |
| O=C(Nc1ccc2c(c1)OCCO2)c1coc2ccccc2c1=O | inconclusive: 50.1 µM [fluorescent, side channel, partial curve, poor fit] |
| CC(C)OC(=O)C(C(=O)C(F)(F)F)c1cc(NS(=O)(=O)c2ccc3ccccc3c2)c2ccccc2c1O (centres undefined) | inconclusive: 35.5 µM [quencher, side channel, partial curve, poor fit] |
| COc1cc2cnc(-c3ccccc3)c(-c3ccc(C(F)(F)F)cc3)c2cc1OC | inconclusive: 44.7 µM [quencher, side channel, partial curve, poor fit] |
| O=C(N/N=C\c1cc([N+](=O)[O-])ccc1N1CCCC1)c1ccccn1 | inconclusive: 89.1 µM [fluorescent, side channel, single point] |
| CN1CCN(C(=O)C2CCC(CNS(=O)(=O)c3cccc4cccnc34)CC2)CC1 (centres undefined) | inactive |
| O=c1[nH][nH]c(C(F)(F)F)c1C=Nc1ccccc1 | inactive |
| CC1=Nc2ccccc2/C1=C\c1nc(-c2ccc(C(F)(F)F)cc2)oc1O | inconclusive: 56.2 µM [fluorescent, side channel, partial curve, poor fit] |
| CCOC(=O)C1CCCN(C2=NC(=O)/C(=C/c3ccc(N(C)C)cc3)S2)C1 (centres undefined) | inconclusive: 79.4 µM [fluorescent, side channel, partial curve, poor fit] |
| CCOC(=O)c1cc(C#N)c(SCC(N)=O)[nH]c1=O | inconclusive: 50.1 µM [fluorescent, side channel, partial curve, poor fit] |
| CCOC(=O)/C=c1\s/c(=C\c2ccc3cc(OC)ccc3c2)c(=O)n1CC(=O)NCC1CCCO1 (centres undefined) | inconclusive: 56.2 µM [fluorescent, side channel, partial curve, poor fit] |
| Cc1ccccc1C(=O)NC(NC(=O)c1ccccc1C)c1cccc([N+](=O)[O-])c1 | inconclusive: 89.1 µM [fluorescent, side channel, partial curve, poor fit] |

| SMILES | Potency |
| --- | --- |
| COc1ccc2c(Cl)c(C(=O)N/N=C3\CCCC(=O)C3)sc2c1 | inconclusive: 44.7 µM [fluorescent, partial curve, poor fit] |
| CN(C)c1ccc(-c2cc3ccccc3c(=O)o2)cc1 | inconclusive: 79.4 µM [fluorescent, side channel, partial curve] |
| CCCCn1c(=NC(=O)c2ccco2)c(C(=O)OCC)cc2c(=O)n3ccccc3nc21 | inactive |
| [O-]/[N+](=C\c1ccccc1)[C@@H]1CCCC[C@@H]1/[N+]([O-])=C/c1ccccc1 | inactive |
| NC(=O)c1ccccc1NCC(=O)c1ccc(F)cc1 | inconclusive: 100 µM [falling, partial curve, poor fit] |
| CCS(=O)(=O)c1ccc2oc(=O)c(/C=C(\O)c3ccc(Cl)cc3)nc2c1 | inconclusive: 56.2 µM [fluorescent, side channel, partial curve, poor fit] |
| CCCCC(=O)Nc1nc(C)c(C(C)=O)s1 | inactive |
| COc1cc2c3nnc(-c4ccc(F)cc4)c-3cn(Cc3ccccc3F)c2cc1OC | inconclusive: 56.2 µM [fluorescent, side channel, partial curve, poor fit] |
| CCCCCCCC/C=C\CCCCCCCC(=O)NCCO | inconclusive: 20 µM [quencher, side channel, partial curve, poor fit] |
| O=C(O)CCNc1ccc(NCCC(=O)O)c2c1C(=O)c1ccccc1C2=O | inconclusive: 56.2 µM [falling, partial curve, poor fit] |
| N#C/C(=C/c1ccc(N2CCOCC2)o1)c1nc2ccccc2[nH]1 | inconclusive: 50.1 µM [fluorescent, side channel, partial curve, poor fit] |
| CCOC(=O)Cc1csc(NC(=O)c2sc3nc4cc(C)ccc4cc3c2N)n1 | inconclusive: 56.2 µM [fluorescent, side channel, partial curve, poor fit] |
| CCCCCCCCOC(=O)c1cc([N+](=O)[O-])c(Sc2ncnc3nc[nH]c23)c([N+](=O)[O-])c1 | inconclusive: 50.1 µM [quencher, side channel, partial curve, poor fit] |
| O=C1c2ccccc2S(=O)(=O)c2cc(C(=O)N(c3ccccn3)c3ccccn3)ccc21 | inactive |
| N#CC(C(=O)NC1CC1)c1nc2ccccc2nc1N1CCCC1 (centres undefined) | inconclusive: 89.1 µM [fluorescent, single point] |
| c1ccc(C[n+]2cccc3c4ccccc4ccc32)cc1 | inactive |
| CSc1nc(C)c2c(c1C#N)CCCC2 | inconclusive: 89.1 µM [quencher, side channel, partial curve, poor fit] |
| N#C/C(=C\c1ccc(-c2ccccc2C(=O)O)o1)c1nc2ccccc2[nH]1 | inconclusive: 56.2 µM [fluorescent, side channel, partial curve, poor fit] |
| COc1cc(N=Cc2c(O)c3ccccc3oc2=O)c(OC)cc1Cl | inconclusive: 44.7 µM [fluorescent, side channel, partial curve, poor fit] |
| COc1cccc(CNC(=O)C2CCN(S(=O)(=O)c3ccc4c(c3)NC(=O)CO4)CC2)c1 | inactive |

| SMILES | Potency |
| --- | --- |
| CC(=O)c1cccc(-n2nnnc2SCC(=O)Nc2cc(C)on2)c1 | inconclusive: 35.5 µM [fluorescent, side channel, single point] |
| O=C(NC(=S)Nc1ccc(F)c(Cl)c1)C1CC1 | inactive |
| CCCCCSc1nc2c(c(=O)[nH]c(=O)n2C)n1CC | inactive |
| COc1ccc(-n2nc(C(=O)Nc3ccc(OC)c(OC)c3)c3c4ccccc4n(C)c3c2=O)cc1 | inconclusive: 89.1 µM [falling, single point] |
| CC1=C(C(=O)OC2CCCCC2)C(c2cccnc2)n2nnnc2N1 (centres undefined) | inactive |
| COc1ccc(OC)c(C2=C/C(=C/c3ccccn3)C(=O)O2)c1 | inconclusive: 79.4 µM [fluorescent, side channel, partial curve, poor fit] |
| COc1cccc(C(=O)Nc2sc3c(c2C(=O)O)CCCC3)c1 | inactive |
| Cc1ccc(O)c(NC2=C(Cl)C(=O)N(Cc3ccccc3)C2=O)c1 | inactive |
| CCCc1nnc(NC(=O)C2CCN(C(=O)c3ccco3)CC2)s1 | inconclusive: 25.1 µM [fluorescent, side channel, full curve] |
| CC(C)c1ccc(/C=C2\Oc3c(ccc(O)c3CN3CCN(C)CC3)C2=O)cc1 | inconclusive: 50.1 µM [fluorescent, side channel, partial curve, poor fit] |
| Cc1cccc2nc(CSc3nc4ccc([N+](=O)[O-])cc4[nH]3)cn12 | inconclusive: 89.1 µM [fluorescent, side channel, single point] |
| COc1cc(-c2nc(S(=O)(=O)c3ccc(C)cc3)c(N(C)C)o2)cc(OC)c1OC | inactive |
| COc1ccc(N/C=C/C(=O)c2cc(OC)c(OC)c(OC)c2)cc1 | inactive |
| O=c1[nH]c2c(s1)C=Nc1ccccc1N2 | inconclusive: 56.2 µM [fluorescent, side channel, partial curve, poor fit] |
| CCOc1ccc(Nc2nc3c(C)cccc3cc2C#N)cc1 | inconclusive: 79.4 µM [fluorescent, side channel, partial curve, poor fit] |
| Cc1ccc(NC(=S)Nc2cccc3cnccc23)cc1 | inactive |
| Cc1c(-c2cccc(Cl)c2)nc2ccccc2c1C(=O)OC/C(O)=C(\C#N)c1nc2ccccc2[nH]1 | inactive |
| O=C(/C=C(O)/C=C/c1ccc(O)cc1)/C=C/c1ccc(O)cc1 | inconclusive: 44.7 µM [fluorescent, side channel, partial curve] |
| CCN(CC)c1ccc2c(-c3ccc(S(=O)(=O)O)cc3S(=O)(=O)[O-])c3ccc(=[N+](CC)CC)cc-3oc2c1 | inconclusive: 50.1 µM [fluorescent, side channel, partial curve, poor fit] |
